The supplement of paper PMC4967469

Compound: C=CC(=O)Nc1cccc(Nc2nc(NC3CCC(N(C)C)CC3)nc3c2ncn3C(C)C)c1 [WZ3105]
Experiment: Viability of human cancer cell lines after 72 h of drug (GDSC screen)
Conditions: top dose inferred
Experimental: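 Human cancer cell lines in 384-well plates, medium with 10% serum, drug for 72 h over a 256-fold dose range (nine 2-fold or five 4-fold steps up to the top dose). Adherent lines were fixed and stained with the nucleic acid dye Syto60, suspension lines read with resazurin; signal relative to control wells, capped at 0 and 100%. One two-parameter sigmoid per drug and line, fitted in a mixed model over all curves with the slope shared within a line.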

Row | Cell Line | AUC | IC50 [nM]
1 | NCI-H2444 (non-small cell lung carcinoma, adherent, top dose 1.28 µM) | 0.988 | > 1280
2 | NCI-H2452 (mesothelioma, adherent, top dose 1.28 µM) | 0.981 | > 1280
3 | NCI-H3122 (lung adenocarcinoma, adherent, top dose 1.28 µM) | 0.662 | 229
4 | NCI-SNU-1 (stomach, suspension, top dose 1.28 µM) | 0.8 | 646
5 | NCI-SNU-5 (stomach, suspension, top dose 1.28 µM) | 0.987 | > 1280
6 | NCI-SNU-16 (stomach, suspension, top dose 1.28 µM) | 0.926 | > 1280
7 | NEC8 (testis, adherent, top dose 1.28 µM) | 0.926 | > 1280
8 | NH-12 (neuroblastoma, adherent, top dose 1.28 µM) | 0.935 | > 1280
9 | NKM-1 (acute myeloid leukaemia, suspension, top dose 1.28 µM) | 0.32 | 24.7
10 | NMC-G1 (glioma, adherent, top dose 1.28 µM) | 0.898 | > 1280
11 | NOMO-1 (acute myeloid leukaemia, suspension, top dose 1.28 µM) | 0.545 | 108
12 | NOS-1 (osteosarcoma, adherent, top dose 1.28 µM) | 0.807 | 845
13 | NTERA-2 cl.D1 (testis, adherent, top dose 1.28 µM) | 0.87 | 1170
14 | NU-DUL-1 (B-cell lymphoma, suspension, top dose 1.28 µM) | 0.498 | 79.3
15 | NUGC-3 (stomach, adherent, top dose 1.28 µM) | 0.903 | > 1280
16 | NUGC-4 (stomach, adherent, top dose 1.28 µM) | 0.952 | > 1280
17 | NY (osteosarcoma, adherent, top dose 1.28 µM) | 0.959 | > 1280
18 | OACM5-1 (oesophagus, semi-adherent, top dose 1.28 µM) | 0.627 | 187
19 | OACp4C (oesophagus, adherent, top dose 1.28 µM) | 0.605 | 165
20 | OAW-28 (ovary, adherent, top dose 1.28 µM) | 0.811 | 915

Row | Cell Line | AUC | IC50 [nM]
21 | OAW-42 (ovary, adherent, top dose 1.28 µM) | 0.913 | > 1280
22 | OC-314 (ovary, adherent, top dose 1.28 µM) | 0.828 | 644
23 | OCI-AML2 (acute myeloid leukaemia, suspension, top dose 1.28 µM) | 0.693 | 237
24 | OCI-AML3 (acute myeloid leukaemia, suspension, top dose 1.28 µM) | 0.508 | 83.8
25 | OCI-AML5 (acute myeloid leukaemia, suspension, top dose 1.28 µM) | 0.545 | 105
26 | OCI-LY-19 (B-cell lymphoma, suspension, top dose 1.28 µM) | 0.582 | 132
27 | OCI-M1 (acute myeloid leukaemia, suspension, top dose 1.28 µM) | 0.799 | 453
28 | OCUB-M (breast, adherent, top dose 1.28 µM) | 0.559 | 113
29 | OCUM-1 (stomach, adherent, top dose 1.28 µM) | 0.915 | > 1280
30 | OE19 (oesophagus, adherent, top dose 1.28 µM) | 0.957 | > 1280
31 | OE21 (oesophagus, adherent, top dose 1.28 µM) | 0.89 | > 1280
32 | OE33 (oesophagus, adherent, top dose 1.28 µM) | 0.91 | > 1280
33 | OMC-1 (cervix, adherent, top dose 1.28 µM) | 0.979 | > 1280
34 | ONS-76 (medulloblastoma, adherent, top dose 1.28 µM) | 0.556 | 115
35 | OPM-2 (myeloma, suspension, top dose 1.28 µM) | 0.941 | > 1280
36 | OS-RC-2 (kidney, adherent, top dose 1.28 µM) | 0.921 | > 1280
37 | OSC-19 (head and neck, adherent, top dose 1.28 µM) | 0.93 | > 1280
38 | OSC-20 (head and neck, adherent, top dose 1.28 µM) | 0.938 | > 1280
39 | OV-7 (ovary, adherent, top dose 1.28 µM) | 0.907 | > 1280
40 | OV-17R (ovary, adherent, top dose 1.28 µM) | 0.973 | > 1280

Row | Cell Line | AUC | IC50 [nM]
41 | OV-56 (ovary, adherent, top dose 1.28 µM) | 0.972 | > 1280
42 | OV-90 (ovary, adherent, top dose 1.28 µM) | 0.826 | 1090
43 | OVCA420 (ovary, adherent, top dose 1.28 µM) | 0.977 | > 1280
44 | OVCA433 (ovary, adherent, top dose 1.28 µM) | 0.911 | > 1280
45 | OVCAR-3 (ovary, adherent, top dose 1.28 µM) | 0.987 | > 1280
46 | OVCAR-4 (ovary, adherent, top dose 1.28 µM) | 0.852 | > 1280
47 | OVCAR-5 (ovary, adherent, top dose 1.28 µM) | 0.703 | 340
48 | OVCAR-8 (ovary, adherent, top dose 1.28 µM) | 0.868 | 968
49 | OVISE (ovary, adherent, top dose 1.28 µM) | 0.741 | 499
50 | OVK-18 (ovary, adherent, top dose 1.28 µM) | 0.985 | > 1280
51 | OVKATE (ovary, adherent, top dose 1.28 µM) | 0.854 | > 1280
52 | OVMIU (ovary, adherent, top dose 1.28 µM) | 0.761 | 562
53 | OVTOKO (ovary, adherent, top dose 1.28 µM) | 0.976 | > 1280
54 | P12-ICHIKAWA (T-cell lymphoblastic leukaemia, suspension, top dose 10.24 µM) | 0.212 | 119
55 | P30-OHK (lymphoblastic leukaemia, suspension, top dose 1.28 µM) | 0.427 | 52.4
56 | P31-FUJ (acute myeloid leukaemia, suspension, top dose 1.28 µM) | 0.941 | > 1280
57 | P32-ISH (Burkitt lymphoma, suspension, top dose 1.28 µM) | 0.86 | 670
58 | PA-1 (ovary, adherent, top dose 1.28 µM) | 0.669 | 211
59 | PA-TU-8902 (pancreas, adherent, top dose 1.28 µM) | 0.787 | 663
60 | PA-TU-8988T (pancreas, adherent, top dose 1.28 µM) | 0.825 | 771

By IC50 is meant the dose at which the fit gives 50% viability; fits outside the tested doses are given as limits. The AUC spans the tested range (256-fold, ending at the top dose) of the same fit: 1 means no effect, lower means more sensitive. Any top dose called inferred is not printed in the source and was worked back from the curve model.
